Reference: publication PMC7757826
These are yes or no findings as the source states them, for the method shown. In cells and extracts the contact can be indirect. Some results given as binding are weak or reduced against the parent protein; the word gives no strength.

Amino acid sequences for entries named in this document (tags omitted).
UniProt P21926: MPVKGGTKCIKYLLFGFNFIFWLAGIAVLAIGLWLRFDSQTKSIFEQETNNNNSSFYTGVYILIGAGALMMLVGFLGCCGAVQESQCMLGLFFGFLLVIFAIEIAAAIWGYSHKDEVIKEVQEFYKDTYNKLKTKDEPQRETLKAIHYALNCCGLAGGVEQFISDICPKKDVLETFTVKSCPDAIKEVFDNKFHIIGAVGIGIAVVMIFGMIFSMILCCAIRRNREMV

Experiments:
[1] = target: T1, CD82 (Tspan-27) (human (endogenous in A2780, OVCAR-3, SKOV-3 and A2780cis cells)) (UniProt P27701); assay: co-IP; OVCAR-3 cells lysed in 1% Triton X-100 buffer; lysates precipitated with antibodies to the studied molecules, western blot
T1 sequence: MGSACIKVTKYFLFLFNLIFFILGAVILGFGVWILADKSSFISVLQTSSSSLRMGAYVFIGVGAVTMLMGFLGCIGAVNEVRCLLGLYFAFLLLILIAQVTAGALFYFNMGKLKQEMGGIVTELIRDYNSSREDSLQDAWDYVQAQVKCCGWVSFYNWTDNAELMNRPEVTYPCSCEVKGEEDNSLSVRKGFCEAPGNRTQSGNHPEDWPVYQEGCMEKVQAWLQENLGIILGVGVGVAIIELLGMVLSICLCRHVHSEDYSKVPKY

[2] = target: T1, CD82 (Tspan-27) (human (endogenous in A2780, OVCAR-3, SKOV-3 and A2780cis cells)); assay: co-IP; A2780 cells lysed in 1% Triton X-100 buffer; lysates precipitated with antibodies to the studied molecules, western blot
[3] = target: claudin-4 (human (endogenous in A2780, OVCAR-3, SKOV-3 and A2780cis cells)) (UniProt O14493); assay: as above
[4] = target: T2, Epithelial cell adhesion molecule (EpCAM) (human (endogenous in A2780, OVCAR-3, SKOV-3 and A2780cis cells)) (UniProt P16422); assay: co-IP; OVCAR-3 cells lysed in 1% Triton X-100 buffer; lysates precipitated with antibodies to the studied molecules, western blot
T2 sequence: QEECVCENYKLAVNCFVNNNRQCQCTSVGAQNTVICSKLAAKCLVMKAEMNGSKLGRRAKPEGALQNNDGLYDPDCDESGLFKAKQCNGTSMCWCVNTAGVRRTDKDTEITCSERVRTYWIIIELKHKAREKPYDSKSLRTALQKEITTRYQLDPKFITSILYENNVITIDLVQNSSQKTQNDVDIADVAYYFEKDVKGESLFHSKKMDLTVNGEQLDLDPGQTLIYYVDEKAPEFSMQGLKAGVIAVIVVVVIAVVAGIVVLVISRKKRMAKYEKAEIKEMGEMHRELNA

[5] = target: T3, claudin-7 (human (endogenous in A2780, OVCAR-3, SKOV-3 and A2780cis cells)) (UniProt O95471); assay: co-IP; A2780 cells lysed in 1% Triton X-100 buffer; lysates precipitated with antibodies to the studied molecules, western blot
T3 sequence: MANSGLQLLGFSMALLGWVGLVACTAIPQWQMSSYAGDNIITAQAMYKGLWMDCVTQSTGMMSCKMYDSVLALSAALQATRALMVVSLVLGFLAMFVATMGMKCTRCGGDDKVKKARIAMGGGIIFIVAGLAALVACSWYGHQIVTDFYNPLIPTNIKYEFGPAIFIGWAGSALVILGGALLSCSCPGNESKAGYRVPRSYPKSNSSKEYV

[6] = target: T2, Epithelial cell adhesion molecule (EpCAM) (human (endogenous in A2780, OVCAR-3, SKOV-3 and A2780cis cells)); assay: co-IP; SKOV-3 cells lysed in 1% Triton X-100 buffer; lysates precipitated with antibodies to the studied molecules, western blot
[7] = target: T1, CD82 (Tspan-27) (human (endogenous in A2780, OVCAR-3, SKOV-3 and A2780cis cells)); assay: as above
[8] = target: T2, Epithelial cell adhesion molecule (EpCAM) (human (endogenous in A2780, OVCAR-3, SKOV-3 and A2780cis cells)); assay: co-IP; A2780 cells lysed in 1% Triton X-100 buffer; lysates precipitated with antibodies to the studied molecules, western blot
[9] = target: T2, Epithelial cell adhesion molecule (EpCAM) (human (endogenous in A2780, OVCAR-3, SKOV-3 and A2780cis cells)); assay: co-IP; tumours of SKOV-3 xenograft nude mice, homogenised in 50 mM Tris-HCl pH 8.0, 150 mM NaCl, 1% Triton X-100; immunoprecipitation and western blot
[10] = target: T1, CD82 (Tspan-27) (human (endogenous in A2780, OVCAR-3, SKOV-3 and A2780cis cells)); assay: as above
[11] = target: T2, Epithelial cell adhesion molecule (EpCAM) (human (endogenous in A2780, OVCAR-3, SKOV-3 and A2780cis cells)); assay: co-IP; A2780cis (cisplatin-resistant) cells lysed in 1% Triton X-100 buffer; lysates precipitated with antibodies to the studied molecules, western blot
[12] = target: T1, CD82 (Tspan-27) (human (endogenous in A2780, OVCAR-3, SKOV-3 and A2780cis cells)); assay: as above
[13] = target: T4, claudin-4 (human (endogenous in A2780, OVCAR-3, SKOV-3 and A2780cis cells)), O14493; assay: co-IP; OVCAR-3 cells lysed in 1% Triton X-100 buffer; lysates precipitated with antibodies to the studied molecules, western blot; conditions: remark: other sources report otherwise
T4 chain: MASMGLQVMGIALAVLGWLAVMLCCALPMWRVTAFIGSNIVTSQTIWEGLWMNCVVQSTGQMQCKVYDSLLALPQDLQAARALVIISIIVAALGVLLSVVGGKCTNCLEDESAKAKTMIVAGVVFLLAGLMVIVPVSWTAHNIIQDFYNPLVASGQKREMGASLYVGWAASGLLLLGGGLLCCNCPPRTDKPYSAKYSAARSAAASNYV

[14] = target: T4, claudin-4 (human (endogenous in A2780, …)); assay: co-IP; A2780 cells lysed in 1% Triton X-100 buffer; lysates precipitated with antibodies to the studied molecules, western blot; conditions: remark: other sources report otherwise
[15] = target: T5, claudin-7 (human (endogenous in A2780, OVCAR-3, SKOV-3 and A2780cis cells)), O95471; assay: cross-linking + co-IP; A2780 cells treated with the membrane-impermeable cross-linker DTSSP (1 mM, 30 min, 37 °C), lysed in RIPA buffer; anti-CD82 or anti-claudin-7 precipitates; conditions: remark: other sources report otherwise
T5 chain: T3 sequence

[16] = target: T5, claudin-7 (human (endogenous in A2780, …)); assay: cross-linking + co-IP; A2780 cells treated with the membrane-permeable cross-linker DSP (1 mM, 30 min, 37 °C), lysed in RIPA buffer; anti-CD82 or anti-claudin-7 precipitates; conditions: remark: other sources report otherwise
[17] = target: T5, claudin-7 (human (endogenous in A2780, …)); assay: cross-linking + co-IP; OVCAR-3 cells treated with DSP or DTSSP (1 mM, 30 min, 37 °C), with or without 2-BP beforehand, lysed in RIPA buffer; anti-CD82 or anti-claudin-7 precipitates; conditions: remark: other sources report otherwise
[18] = target: T5, claudin-7 (human (endogenous in A2780, …)); assay: cross-linking + co-IP; A2780 cells treated first with 2-BP and then with DSP or DTSSP; anti-CD82 or anti-claudin-7 precipitates; conditions: remark: other sources report otherwise
[19] = target: T5, claudin-7 (human (endogenous in A2780, …)); assay: cross-linking + co-IP; SKOV-3 cells treated with DSP or DTSSP (1 mM, 30 min, 37 °C), claudin-7 precipitates also after 2-BP beforehand, lysed in RIPA buffer; anti-CD82 or anti-claudin-7 precipitates; conditions: remark: other sources report otherwise

For “CD9 (Tetraspanin-29) (from UniProt P21926 1-228)”, the binding [1] was “binds”, the binding [2] was “binds” and the binding [3] was “binds”.

With claudin-3 (from UniProt O15551 1-220) the binding [4] was “binds”, the binding [1] was “binds” and the binding [2] was “binds”. For the same molecule, the binding [5] was “binds weakly”.

B1: CD82 (Tspan-27) (protein, UniProt P27701 1-267)
chain: T1 sequence
For B1, the binding [4] was “binds” and the binding [5] was “binds weakly”.

B2: claudin-7 (protein, UniProt O95471 1-211)
chain: T3 sequence
In the case of B2, the binding [4] is reported as “binds”, the binding [1] is reported as “binds” and the binding [6] is reported as “binds”. For the same molecule, the binding [7] was “binds”, the binding [8] was “binds weakly” and the binding [2] was “binds”. The binding [9] was “binds”, the binding [10] was “binds” and the binding [11] was “binds”. The binding [12] was “binds”.

B3: claudin-3, O15551 1-220 (protein)
chain: MSMGLEITGTALAVLGWLGTIVCCALPMWRVSAFIGSNIITSQNIWEGLWMNCVVQSTGQMQCKVYDSLLALPQDLQAARALIVVAILLAAFGLLVALVGAQCTNCVQDDTAKAKITIVAGVLFLLAALLTLVPVSWSANTIIRDFYNPVVPEAQKREMGAGLYVGWAAAALQLLGGALLCCSCPPREKKYTATKVVYSAPRSTGPGASLGTGYDRKDYV
For B3, the binding [13] was “binds” and the binding [14] was “binds”.

B4: claudin-4, O14493 1-209 (protein)
chain: T4 chain
With B4 the binding [14] was “binds”, the binding [15] was “binds” and the binding [16] was “binds”. The binding [17] was “binds”, the binding [18] was “binds” and the binding [19] was “binds”.
